# Source: the supplement of paper PMC8728848
# Some of the results follow.
# B1: LSectin (Mus musculus), Q8BNX1 (protein)
# chain: MNTGEYNKLGSAIEEVSRGQLGRWECYKQRLFFLVLALLVATVLWALILSTLLSSASSKLRVLLSHQDLLRTNASEQKMTLSSLKDDIGACRNCCSVTKAQLQTTLAEFKDIQAKLMEQESILKELQERVTQDLAKASRDRENIRSELFQALEAVKRQNSSCEQCPPSWLPFQGSCYYFSETQATWDTAQSYCGGQGAHLVIVRGLNEQGFLSQHTRGRGYWLGLRAVRHLNKIQGYRWVDGASLNFSHWNSGEPNDSRGHEDCIMMLHSGLWNDAPCTNERDGWICEKRSSCY
# What was measured:
# Assay in all cases: glycan array binding signal (z-score within array); higher = stronger binding
# Details in all cases: glycan notation: IUPAC condensed, linker removed
# [1] = target: Neu5Ac(a2-3)Gal(b1-3)[Neu5Ac(a2-3)Gal(b1-4)]GlcNAc
# Method in brief: (§1)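 Negative Z-scores can be read as non-binding. The Z-score is calculated within each array and then averaged across arrays of one protein sequence at different concentrations or buffers and across linkers. Arrays, 3228 in all, were curated from the Consortium for Functional Glycomics database and kept only where the protein sequence was available.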
# [2] = target: Neu5Ac(a2-3)Gal(b1-3)[Neu5Ac(a2-6)]GalNAc
# Method in brief: as §1
# [3] = target: Neu5Ac(a2-3)Gal(b1-4)Glc
# Method in brief: as §1
# [4] = target: Neu5Ac(a2-3)Gal(b1-4)GlcNAc
# Method in brief: as §1
# [5] = target: Neu5Ac(a2-3)Gal(b1-4)GlcNAc(b1-2)Man(a1-3)[GlcNAc(b1-2)Man(b1-4)GlcNAc(b1-2)Man(a1-6)]Man(b1-4)GlcNAc(b1-4)GlcNAc
# Method in brief: as §1
# [6] = target: Neu5Ac(a2-3)Gal(b1-4)GlcNAc(b1-2)Man(a1-3)[Neu5Ac(a2-6)Gal(b1-4)GlcNAc(b1-2)Man(a1-6)]Man(b1-4)GlcNAc(b1-4)GlcNAc
# Method in brief: as §1
# [7] = target: Neu5Ac(a2-3)Gal(b1-4)GlcNAc(b1-3)Gal
# Method in brief: as §1
# [8] = target: Neu5Ac(a2-3)Gal(b1-4)GlcNAc(b1-3)Gal(b1-3)GlcNAc
# Method in brief: as §1
# [9] = target: Neu5Ac(a2-3)Gal(b1-4)GlcNAc(b1-3)Gal(b1-4)GlcNAc
# Method in brief: as §1
# [10] = target: Neu5Ac(a2-3)Gal(b1-4)GlcNAc(b1-3)Gal(b1-4)GlcNAc(b1-3)Gal(b1-4)GlcNAc
# Method in brief: as §1
# [11] = target: Neu5Ac(a2-3)Gal(b1-4)GlcNAc(b1-3)Gal(b1-4)[Fuc(a1-3)]GlcNAc
# Method in brief: as §1
# [12] = target: Neu5Ac(a2-3)Gal(b1-4)GlcNAc(b1-3)GalNAc
# Method in brief: as §1
# [13] = target: Neu5Ac(a2-3)Gal(b1-4)GlcNAc(b1-6)[Gal(b1-3)]GalNAc
# Method in brief: as §1
# [14] = target: Neu5Ac(a2-3)Gal(b1-4)GlcNAc(b1-6)[Neu5Ac(a2-3)Gal(b1-3)]GalNAc
# Method in brief: as §1
# [15] = target: Neu5Ac(a2-3)Gal(b1-4)GlcNAc6S
# Method in brief: as §1
# [16] = target: Neu5Ac(a2-3)Gal(b1-4)[Fuc(a1-3)]GlcNAc
# Method in brief: as §1
# [17] = target: Neu5Ac(a2-3)Gal(b1-4)[Fuc(a1-3)]GlcNAc(b1-3)Gal
# Method in brief: as §1
# [18] = target: Neu5Ac(a2-3)Gal(b1-4)[Fuc(a1-3)]GlcNAc(b1-3)Gal(b1-4)GlcNAc
# Method in brief: as §1
# [19] = target: Neu5Ac(a2-3)Gal(b1-4)[Fuc(a1-3)]GlcNAc(b1-3)Gal(b1-4)[Fuc(a1-3)]GlcNAc(b1-3)Gal(b1-4)[Fuc(a1-3)]GlcNAc
# Method in brief: as §1
# [20] = target: Neu5Ac(a2-3)Gal(b1-4)[Fuc(a1-3)]GlcNAc(b1-3)GalNAc
# Method in brief: as §1
# [21] = target: Neu5Ac(a2-3)Gal(b1-4)[Fuc(a1-3)]GlcNAc(b1-6)[Gal(b1-3)]GalNAc
# Method in brief: as §1
# [22] = target: Neu5Ac(a2-3)Gal(b1-4)[Fuc(a1-3)]GlcNAc(b1-6)[Neu5Ac(a2-3)Gal(b1-3)]GalNAc
# Method in brief: as §1
# [23] = target: Neu5Ac(a2-3)Gal(b1-4)[Fuc(a1-3)]GlcNAc6S
# Method in brief: as §1
# [24] = target: Neu5Ac(a2-3)Gal6S(b1-4)GlcNAc
# Method in brief: as §1
# [25] = target: Neu5Ac(a2-3)Gal6S(b1-4)[Fuc(a1-3)]GlcNAc
# Method in brief: as §1
# [26] = target: Neu5Ac(a2-3)GalNAc
# Method in brief: as §1
# [27] = target: Neu5Ac(a2-3)GalNAc(b1-4)GlcNAc
# Method in brief: as §1
# [28] = target: Neu5Ac(a2-3)[GalNAc(b1-4)]Gal(b1-4)Glc
# Method in brief: as §1
# [29] = target: Neu5Ac(a2-3)[GalNAc(b1-4)]Gal(b1-4)GlcNAc
# Method in brief: as §1
# [30] = target: Neu5Ac(a2-3)[GalNAc(b1-4)]Gal(b1-4)GlcNAc(b1-3)GalNAc
# Method in brief: as §1
# [31] = target: Neu5Ac(a2-3)[Neu5Ac(a2-6)]GalNAc
# Method in brief: as §1
# [32] = target: Neu5Ac(a2-6)Gal
# Method in brief: as §1
# [33] = target: Neu5Ac(a2-6)Gal(b1-3)GlcNAc(b1-3)[Gal(b1-4)GlcNAc(b1-6)]Gal(b1-4)Glc
# Method in brief: as §1
# [34] = target: Neu5Ac(a2-6)Gal(b1-4)Glc
# Method in brief: as §1
# [35] = target: Neu5Ac(a2-6)Gal(b1-4)GlcNAc
# Method in brief: as §1
# [36] = target: Neu5Ac(a2-6)Gal(b1-4)GlcNAc(b1-2)Man(a1-3)Man(b1-4)GlcNAc(b1-4)GlcNAc
# Method in brief: as §1
# [37] = target: Neu5Ac(a2-6)Gal(b1-4)GlcNAc(b1-2)Man(a1-3)[Gal(b1-4)GlcNAc(b1-2)Man(a1-6)]Man(b1-4)GlcNAc(b1-4)GlcNAc
# Method in brief: as §1
binder,measurement,setting,value
B1,glycan array binding signal (z-score),[1],-0.18
same,glycan array binding signal (z-score),[2],-0.161
same,glycan array binding signal (z-score),[3],-0.179
same,glycan array binding signal (z-score),[4],-0.163
same,glycan array binding signal (z-score),[5],-0.183
same,glycan array binding signal (z-score),[6],-0.164
same,glycan array binding signal (z-score),[7],-0.191
same,glycan array binding signal (z-score),[8],-0.186
same,glycan array binding signal (z-score),[9],-0.147
same,glycan array binding signal (z-score),[10],-0.185
same,glycan array binding signal (z-score),[11],-0.171
same,glycan array binding signal (z-score),[12],-0.191
same,glycan array binding signal (z-score),[13],-0.175
same,glycan array binding signal (z-score),[14],-0.193
same,glycan array binding signal (z-score),[15],-0.151
same,glycan array binding signal (z-score),[16],-0.154
same,glycan array binding signal (z-score),[17],-0.16
same,glycan array binding signal (z-score),[18],-0.159
same,glycan array binding signal (z-score),[19],-0.181
same,glycan array binding signal (z-score),[20],-0.154
same,glycan array binding signal (z-score),[21],-0.175
same,glycan array binding signal (z-score),[22],-0.181
same,glycan array binding signal (z-score),[23],-0.156
same,glycan array binding signal (z-score),[24],-0.172
same,glycan array binding signal (z-score),[25],-0.171
same,glycan array binding signal (z-score),[26],-0.168
same,glycan array binding signal (z-score),[27],-0.168
same,glycan array binding signal (z-score),[28],-0.177
same,glycan array binding signal (z-score),[29],-0.178
same,glycan array binding signal (z-score),[30],-0.194
same,glycan array binding signal (z-score),[31],-0.169
same,glycan array binding signal (z-score),[32],-0.118
same,glycan array binding signal (z-score),[33],-0.187
same,glycan array binding signal (z-score),[34],-0.167
same,glycan array binding signal (z-score),[35],-0.155
same,glycan array binding signal (z-score),[36],-0.189
same,glycan array binding signal (z-score),[37],-0.173
